Some of the results follow.

This experiment relates to PfAP2-HC AP2 domain (GST-tagged). The experiment in a line: gcPBM binding intensity (ln(normalized median fluorescence intensity)); higher = stronger DNA binding. In a few lines:
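Binding of GST-tagged P. falciparum DNA-binding domains, expressed in E. coli and used at about 25 μg on average, was carried out for 1 h in 1× PBS containing 1% milk, 0.2 mg/ml BSA, 0.5% salmon testes DNA and 0.03% Triton X-100. The target was an Agilent 4 × 180k array of primer-extended double-stranded 36-bp intergenic genomic probes plus negative controls, read with Alexa488 anti-GST antibody at 488 nm. Binding intensity is the highest Masliner-normalised natural-log median intensity across replicate spots of either probe orientation.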
On to “ATGTTGTACAGACACACACACAAAAAAAAAATAAAA [CACACA_site7184]”, for which the “gcPBM binding intensity (ln)” value was found to be 10.2.

Turning to “ATATATATATATATATGTACATACATACAATCATAT [XGTACX_site6410]”, the “gcPBM binding intensity (ln)” value was 10.1.

In the case of “CTTACATATTACATATGTACATATACACCTTATGTC [XGTACX_site4679]”, the “gcPBM binding intensity (ln)” value is 9.89.

With “TATAATAGCTTCTTTACACACACCATTTTTTTTTTT [CACACA_site1456]”, the “gcPBM binding intensity (ln)” value came to 10.2.

As for “ATATATTTACTTAATACACACAAAAAAAAAAAAAAA [CACACA_site3657]”, the “gcPBM binding intensity (ln)” value was found to be 9.47.

“TTTAATTTTTATATAACACACATATTGGAATTATGT [CACACA_site734]”: the “gcPBM binding intensity (ln)” value was found to be 9.9.

As for “TTAAATGTGAAGTGAATACACACCTAATAAATATAA [CACACA_site3194]”, the “gcPBM binding intensity (ln)” value was 9.5.

Regarding “TTTTTTACATACAGAAATATATAATATAAAATAAAT [GTGCAC_negctrl_site278]”, the “gcPBM binding intensity (ln)” value was determined as 9.36.

In the case of “TTATGTATTACCTGCCGTACTTCTAAAATAATTAAA [XGTACX_site1716]”, the “gcPBM binding intensity (ln)” value stood at 9.5.

In the case of “TGTTACAAAAAATAATGTACTTAATATATATATATA [XGTACX_site1016]”, the “gcPBM binding intensity (ln)” value was found to be 9.43.

Take “TATCTTCATTTTTTTGGTACGCACGCAAATATGGCT [XGTACX_site3107]”: the “gcPBM binding intensity (ln)” value came out at 9.65.

With “ACTGTCATTTATTGTAGTACGTCAATTTATTACATT [XGTACX_site2749]”, the “gcPBM binding intensity (ln)” value is 10.3.

Regarding “TATAATATGTTATATACACACATTATAAAATACACA [CACACA_site6742]”, the “gcPBM binding intensity (ln)” value was found to be 9.84.

As for “TAATAATAAATAAAATGTACATATGAACAAATAAGT [XGTACX_site6710]”, the “gcPBM binding intensity (ln)” value stood at 9.97.

With “AAAAAAAAAATTAATTGTACTAAAAAAATATTATAT [XGTACX_site8903]”, the “gcPBM binding intensity (ln)” value was determined as 9.48.

As to “TGAATATTCATGTGTGTGCGCATGTTGTTAGACCAT [GTGCAC_site9869]”, the “gcPBM binding intensity (ln)” value is 10.4.

With “TGTTTTCTTGATTATTGTACTTTAATTAGTAATATG [XGTACX_site8674]”, the “gcPBM binding intensity (ln)” value turned out to be 9.64.

As to “TAAATACATTTATGTACACACACATAGATGTATATT [CACACA_site5618]”, the “gcPBM binding intensity (ln)” value is 9.93.

On to “AAAAATATTATAAGCACACATATATATATATATATA [CACACA_site2458]”, for which the “gcPBM binding intensity (ln)” value was determined as 9.53.

For the sequence “TTATATATAATATGACGTACAATTATACATTTTATG [XGTACX_site7598]”, the “gcPBM binding intensity (ln)” value amounted to 9.58.

Regarding “ATAAATATTTATAACAGTACATATTTACTATCCTAA [XGTACX_site4497]”, the “gcPBM binding intensity (ln)” value came to 9.56.

With “ACGATTAAATCGATAATACACACTAAATGTAAAACA [CACACA_site119]”, the “gcPBM binding intensity (ln)” value worked out at 9.84.

In the case of “TATACACATATTTTTACACACATATTTTTTCATATA [CACACA_site7244]”, the “gcPBM binding intensity (ln)” value is 9.98.

In the case of “TATATTATTTTTAGAAGTACTTATTGTTATAATTCT [XGTACX_site1015]”, the “gcPBM binding intensity (ln)” value was determined as 9.57.

With “AGAAAAGATAAAAATAGTACATATATATTTACTTAT [XGTACX_site7820]”, the “gcPBM binding intensity (ln)” value was determined as 9.6.

Take “CTCCTTTCAAAAAAATGTACATGTTTACATTTCAAG [XGTACX_site7342]”: the “gcPBM binding intensity (ln)” value was determined as 9.55.

For the sequence “TATATCAAAATACATACACACATTTGTATTTACATT [CACACA_site5485]”, the “gcPBM binding intensity (ln)” value worked out at 9.87.

In the case of “ATTTTAATTTGTTATACACACACAAAAAAAATTATA [CACACA_site9306]”, the “gcPBM binding intensity (ln)” value is 9.89.

For the sequence “TTTTTTTTTAATCATGCACACTGTTAAAAGAATAAA [CACACA_site4817]”, the “gcPBM binding intensity (ln)” value was determined as 9.29.

For “TATAAAAAAATATATATATATATTATATGTGTAGAA [TGCATGCA_negctrl_site391]”, the “gcPBM binding intensity (ln)” value worked out at 9.78.

“ATTTATTTGAAGAATTGTACTAAATTATATAGCGGT [XGTACX_site4998]”: the “gcPBM binding intensity (ln)” value stood at 9.51.

“TACATTTATACTACTGCATTCAAAAAAAATAAAAAA [TGCATGCA_negctrl_site157]”: the “gcPBM binding intensity (ln)” value was 9.42.

Regarding TGCTTATTTAGAATTGTGCACAGCGAATATTCTGTT, the “gcPBM binding intensity (ln)” value was determined as 9.73.

With “GAATCCTTAATATGAACACACAAATATATTACCCAT [CACACA_site186]”, the “gcPBM binding intensity (ln)” value was determined as 9.83.

Consider TTTTGTTATTTTTCAGTGCAATATGATAATAATATA, for which the “gcPBM binding intensity (ln)” value was 9.51.

For “TCTTTTTAACAAAAAAAAAAAAAAAAAAAAAAATTA [CACACA_negctrl_site1637]”, the “gcPBM binding intensity (ln)” value worked out at 9.12.

Regarding “AGAATTTTATTATATTGTACTTTTTATAAACCTTGT [XGTACX_site7495]”, the “gcPBM binding intensity (ln)” value was found to be 9.61.

For “TAGGAAAAAAATACAGTGCAATTTTTATATAAATAA [GTGCAC_site9979]”, the “gcPBM binding intensity (ln)” value came to 9.59.

For the sequence “TTTTTTTTTTTTTTGTGTACTAATATTATAAATTTT [XGTACX_site4405]”, the “gcPBM binding intensity (ln)” value worked out at 9.42.

As for “TTTATATAAATCAAATGTACATATTCCAAATATATA [XGTACX_site8515]”, the “gcPBM binding intensity (ln)” value was determined as 9.44.

In the case of “TACATATTTTATAACTGTACTTTTTTATTATCCAAT [XGTACX_site5396]”, the “gcPBM binding intensity (ln)” value was determined as 9.66.

For the sequence “TTTTTTTTTTCAAATACATGCATTTATGTATAATAC [TGCATGCA_site722]”, the “gcPBM binding intensity (ln)” value stood at 9.53.

Consider “TATTCTAATATATGCATACACACAAATGTGAATATA [CACACA_site2143]”, for which the “gcPBM binding intensity (ln)” value worked out at 9.66.

For “CACATTATGTATCATACACACAAATAAATATAGAAT [CACACA_site609]”, the “gcPBM binding intensity (ln)” value came out at 10.

Regarding “TTTATATGTATTAAGTGTACACATATAATGTGTTTT [XGTACX_site4890]”, the “gcPBM binding intensity (ln)” value was determined as 9.73.

Regarding “TTTTTTTTTTTTTTTACACACACAAAATATTATATG [CACACA_site2471]”, the “gcPBM binding intensity (ln)” value worked out at 9.88.

Consider “TATTATTTACCTTGCTAGTTCGTTCCAAATTTTATG [XGTACX_negctrl_site197]”, for which the “gcPBM binding intensity (ln)” value was 9.81.

As to “TATATTATTCATTAAGCACACATTATTTTTATAATA [CACACA_site6056]”, the “gcPBM binding intensity (ln)” value turned out to be 9.69.

In the case of “ATGTTTGATGCTACACGTACACACCTTGCAAATATT [XGTACX_site1644]”, the “gcPBM binding intensity (ln)” value is 9.88.

Take “AAAACTATAATAAAAGGTACACATTTATTTTTTTCT [XGTACX_site730]”: the “gcPBM binding intensity (ln)” value came to 9.68.

On to “AAAACAAATTTTAATGAGAATATGAAAAAAAAATAT [XGTACX_negctrl_site268]”, for which the “gcPBM binding intensity (ln)” value came to 9.63.

As to “CTTTGTGGTATAGATACACACTATATTAATATGAAC [CACACA_site7081]”, the “gcPBM binding intensity (ln)” value was 9.66.

In the case of “AAATAAAAAGGGTGCACACAAAAATATATATATATA [CACACA_site1728]”, the “gcPBM binding intensity (ln)” value was 9.94.

For “ATTTTAAATATTTGTGGTACCCCTTTTTTGTAACAA [XGTACX_site5590]”, the “gcPBM binding intensity (ln)” value was found to be 9.61.

In the case of “TAAAAAAGAACAGAAACACACAAATAAAATAAAATT [CACACA_site1758]”, the “gcPBM binding intensity (ln)” value was 10.6.

As for “CAAAATTGAAGGAACACACATACATATATATATATG [CACACA_site179]”, the “gcPBM binding intensity (ln)” value was 9.85.

Consider “ATTTATTTATGTATTTGTACGTATATATTTATGCAT [XGTACX_site5218]”, for which the “gcPBM binding intensity (ln)” value is 9.83.

(Values after the supplement of paper PMC11417369.)
